We go through three molecules from patent US20240209098A1 (NAVIGO PROTEINS, published 2024).

Common to all, as to assay: SPR (Biacore 3000), target immobilised on CM5 chip, fusion protein as analyte, Langmuir 1:1
A general note: SPR reads the build-up and loss of mass on a sensor chip optically.

One test addresses T1, VEGF-A (VEGF-165) (human, UniProt P15692-4 27-191).
T1 construct: The isoforms are said to be active as dimers; also called vascular endothelial growth factor
T1 sequence (looked up): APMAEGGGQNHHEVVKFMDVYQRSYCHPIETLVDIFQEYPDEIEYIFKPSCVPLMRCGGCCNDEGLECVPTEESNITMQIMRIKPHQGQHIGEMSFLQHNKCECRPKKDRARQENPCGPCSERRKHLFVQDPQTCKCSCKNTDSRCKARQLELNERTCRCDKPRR
As for the experimental part:
(§1) Binding of Type II collagen or VEGF-A was evaluated by SPR measurements using Biacore 3000 (GE Healthcare). Purified Type II collagen was obtained by Chondrex.inc and VEGF-A (VEGF-165) was obtained by Millipore. The purified target proteins were immobilized on a CM-5 sensor chip (GE Healthcare) using NHS/EDC after PDEA activation resulting in about 1000 RU. The chip was equilibrated with SPR running buffer (PBS 0.05% Tween pH 7.3).
(§2) The analytes were applied to the chip in serial dilutions with a flow rate of 30 μl/min. The association was performed for 120 seconds and the dissociation for 120 seconds. After each run, the chip surface was regenerated with 30 μl regeneration buffer (10 mM glycine pH 2.0) and equilibrated with running buffer. Upon binding, fusion proteins were accumulated on the surface increasing the refractive index. This change in the refractive index was measured in real time and plotted as response or resonance units versus time. Data evaluation was operated via the BIAevaluation 3.0 software, provided by the manufacturer, by the use of the Langmuir 1:1 model (RI=0). Evaluated dissociation constants (KD) were standardized against the immobilized fusion protein and indicated. Shown is the change in refractive index measured in real time and plotted as response or resonance unit [RU] versus time [sec].

Another test deals with T2, rabbit Type II collagen (rabbit).
T2 construct: also called rbCol2; rbColII
As for the experimental part:
as §1, §2

Another test concerns the target T3, pig Type II collagen (pig).
T3 construct: also called pCol2; pColII
The method, then: as §1, §2

B1: CID 218480, fusion protein n[Col2-BP1_as dimer, VEGF-BP - Col2-BP1 as dimer]c (Fc fusion)
chain: IAAKFDEAQSAADSEILHLPNLTEQQRHYFRRWLSDDPSVSTHILTQAQHLNDDQAPKIAAKFDEAQSAADSEILHLPNLTEQQRHYFRRWLSDDPSVSTHILTQAQHLNDDQAPKGGGGSGGGGSGGGGSSDTGRPFVEMYSEIPEIIHMTEGRELVIPCRVTSPNITVTLKKFPLDTLIPDGKRIIWDSRKGFIISNATYKEIGLLTCEATVNGHLYKTNYLTHRQTNTIIDVVLSPSHGIELSVGEKLVLNCTARTELNVGIDFNWEYPSSKHQHKKLVNRDLKTQSGSEMKKFLSTLTIDGVTRSDQGLYTCAASSGLMTKKNSTFVRVHEK[skipping human IgG1 Fc]GGGSGGGGSGGGGSIAAKFDEAQQAADKEILHLPNLTEQQRNYFRQWLRDDPSVSPTVLGTAQQLNDSQAPKIAAKFDEAQQAADKEILHLPNLTEQQRNYFRQWLRDDPSVSPTVLGTAQQLNDSQAPKSAWSHPQFEK
notes: Col2-BP1 at both the N- and C-terminus, Aflibercept in the middle
A word on the Kd: it is the concentration at which binding is half-saturated. Read a high Kd as a looser complex. In the test with VEGF-A (VEGF-165), B1 had a Kd of 9 nM.

B2: CID 213350, control fusion protein n[VEGF-BP, non Col2 BP PAdelFc as dimer]c (Fc fusion)
chain: SDTGRPFVEMYSEIPEIIHMTEGRELVIPCRVTSPNITVTLKKFPLDTLIPDGKRIIWDSRKGFIISNATYKEIGLLTCEATVNGHLYKTNYLTHRQTNTIIDVVLSPSHGIELSVGEKLVLNCTARTELNVGIDFNWEYPSSKHQHKKLVNRDLKTQSGSEMKKFLSTLTIDGVTRSDQGLYTCAASSGLMTKKNSTFVRVHEK[skipping human IgG1 Fc]GGGSGGGGSGGGGSIAAKFDEAQSAADSEILHLPNLTEEQRNAFRQSLSDDPSVSLEVLGEAQKLNDSQAPKIAAKFDEAQSAADSEILHLPNLTEEQRNAFRQSLSDDPSVSLEVLGEAQKLNDSQAPK
In the test with VEGF-A (VEGF-165), B2 returned a Kd of 1.93 nM.

B3: CID 212710, fusion protein n[VEGF-BP, Col2-BP2 as dimer]c (Fc fusion)
chain: SDTGRPFVEMYSEIPEIIHMTEGRELVIPCRVTSPNITVTLKKFPLDTLIPDGKRIIWDSRKGFIISNATYKEIGLLTCEATVNGHLYKTNYLTHRQTNTIIDVVLSPSHGIELSVGEKLVLNCTARTELNVGIDFNWEYPSSKHQHKKLVNRDLKTQSGSEMKKFLSTLTIDGVTRSDQGLYTCAASSGLMTKKNSTFVRVHEK[skipping human IgG1 Fc]GGGSGGGGSGGGGSIAAKFDEAQQAADKEILHLPNLTEQQRNYFRQWLRDDPSVSPTVLGTAQQLNDSQAPKIAAKFDEAQQAADKEILHLPNLTEQQRNYFRQWLRDDPSVSPTVLGTAQQLNDSQAPK
notes: Aflibercept at the N-terminus, Col2-BP2 at the C-terminus; also called fusion protein 212710
For B3, the Kd with rabbit Type II collagen turned out to be 4 nM; with pig Type II collagen, 6.25 nM; in the test with VEGF-A (VEGF-165), 2.54 nM.
